# Measured values published in the BET-seq Pho4 binding data (Le et al. 2018).
# Some of the results follow. Values were computed here from the reads of four pooled replicates and scatter widely.
# Target: T1, Pho4 (S. cerevisiae) (UniProt P07270)
# T1 sequence: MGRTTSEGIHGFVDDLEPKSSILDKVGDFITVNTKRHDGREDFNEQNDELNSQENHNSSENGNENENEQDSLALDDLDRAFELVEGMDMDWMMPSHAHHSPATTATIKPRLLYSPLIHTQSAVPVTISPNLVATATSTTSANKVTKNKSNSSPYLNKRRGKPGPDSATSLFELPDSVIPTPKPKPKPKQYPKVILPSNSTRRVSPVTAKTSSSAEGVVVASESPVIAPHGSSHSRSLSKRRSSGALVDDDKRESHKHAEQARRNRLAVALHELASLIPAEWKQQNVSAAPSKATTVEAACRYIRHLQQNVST
# Experiment: relative binding free energy (BET-seq); higher = weaker binding
# Details: reference: library average
row,Sequence,relative binding free energy
1,TTGGTCACGTGCATGT,0.1 kcal/mol
2,CTTGACACGTGGTTAA,-0.04 kcal/mol
3,GGAATCACGTGATTTT,0.29 kcal/mol
4,ATCGTCACGTGCGTGT,0.08 kcal/mol
5,GTTTGCACGTGAAGGT,0.38 kcal/mol
6,AGGCGCACGTGGCGTA,-0.22 kcal/mol
7,GAGAGCACGTGTTGGT,-0.04 kcal/mol
8,TTATGCACGTGGACTG,-0.08 kcal/mol
9,AGGCTCACGTGTGCGG,0.06 kcal/mol
10,TGGGGCACGTGCGTAT,-0.24 kcal/mol
11,GGGTGCACGTGGGTGT,-0.12 kcal/mol
12,TGGTGCACGTGGGATT,0.07 kcal/mol
13,TGGGGCACGTGACATG,0.05 kcal/mol
14,AGAAACACGTGTGGAG,0.01 kcal/mol
15,GTTGCCACGTGGTTTA,-0.1 kcal/mol
16,AACTGCACGTGTGGGG,-0.11 kcal/mol
17,TGTTGCACGTGTATCA,0 kcal/mol
18,ATTGTCACGTGCCGGT,0.02 kcal/mol
19,GGATGCACGTGGCGCG,-0.08 kcal/mol
20,TGCTGCACGTGTTGCG,0.02 kcal/mol
21,ACGTTCACGTGAGGTG,0.39 kcal/mol
22,AATGGCACGTGGTTCG,-0.1 kcal/mol
23,TTATTCACGTGTAATA,0.18 kcal/mol

row,Sequence,relative binding free energy
1,AGAAGCACGTGTTATG,-0.14 kcal/mol
2,TTCGTCACGTGGGAGT,-0.01 kcal/mol
3,CTTGGCACGTGATTGA,-0.03 kcal/mol
4,AGAAACACGTGATGGG,0.18 kcal/mol
5,GAGATCACGTGTGGTC,0.29 kcal/mol
6,AGGTTCACGTGACGGT,0.2 kcal/mol
7,TTTTTCACGTGCGACT,0.27 kcal/mol
8,AATTTCACGTGTGTAA,0.31 kcal/mol
9,AATAACACGTGTTTTT,0.09 kcal/mol
10,ATGTTCACGTGCTTGC,0.4 kcal/mol
11,TTTTGCACGTGACGTT,0.09 kcal/mol
12,TGCTGCACGTGTGGGT,0.03 kcal/mol
13,TTACTCACGTGGTAAG,0.24 kcal/mol
14,AATCACACGTGGTGTT,0 kcal/mol
15,TGTGCCACGTGAATGT,0.13 kcal/mol
16,GAGAGCACGTGGCGTG,-0.09 kcal/mol
17,GGAGGCACGTGTCGAG,-0.11 kcal/mol
18,GGCTGCACGTGCGCGG,-0.04 kcal/mol
19,GGGGCCACGTGCAGTG,-0.1 kcal/mol
20,ATATGCACGTGCTCGG,-0.09 kcal/mol
21,GGTGACACGTGGTGAT,-0.07 kcal/mol
22,TGTTTCACGTGCCTAG,0.3 kcal/mol
23,GTCAACACGTGTAGGT,0.12 kcal/mol

row,Sequence,relative binding free energy
1,CGGTGCACGTGTATTG,-0.02 kcal/mol
2,TTTGGCACGTGATTGA,0.02 kcal/mol
3,AGGGGCACGTGCGAAG,-0.14 kcal/mol
4,TGTGACACGTGTCGGA,0.13 kcal/mol
5,CTGTTCACGTGAGGGA,0.23 kcal/mol
6,ATAGTCACGTGAGGGA,0.21 kcal/mol
7,TGGGGCACGTGCCGTT,-0.23 kcal/mol
8,AGGTTCACGTGATACT,0.25 kcal/mol
9,TCTGTCACGTGAGGTC,0.25 kcal/mol
10,CGTTACACGTGGTGGA,-0.02 kcal/mol
11,GATTGCACGTGTTGTG,0.12 kcal/mol
12,AGTGCCACGTGTTTGT,-0.13 kcal/mol
13,AAGGGCACGTGCATGT,-0.2 kcal/mol
14,CGGTGCACGTGGAATT,0.15 kcal/mol
15,AGAGGCACGTGACATG,0.02 kcal/mol
16,CGGAGCACGTGATAGG,0.1 kcal/mol
17,AAAGGCACGTGTGGGA,0.02 kcal/mol
18,AACGGCACGTGTGTTG,-0.04 kcal/mol
19,TAGGACACGTGATTGA,0.07 kcal/mol
20,GGTCTCACGTGAAGTA,0.6 kcal/mol
21,GGTTCCACGTGTTATT,0.25 kcal/mol
22,GGATACACGTGTTTTG,0.1 kcal/mol
23,CTTCGCACGTGTGTTG,-0.14 kcal/mol

row,Sequence,relative binding free energy
1,GTCGTCACGTGGGGTG,0.01 kcal/mol
2,AGCTTCACGTGTGGTC,0.19 kcal/mol
3,TATAGCACGTGGAGGG,-0.05 kcal/mol
4,CTTCGCACGTGGTGGT,-0.12 kcal/mol
5,ACGTGCACGTGGGGTG,-0.25 kcal/mol
6,GTGATCACGTGGAAGG,0.18 kcal/mol
7,TTATTCACGTGCGATT,0.31 kcal/mol
8,GCGTTCACGTGTGATG,0.54 kcal/mol
9,CTGTGCACGTGAGTAT,0.14 kcal/mol
10,TGTATCACGTGTGCCT,0.08 kcal/mol
11,TTTCGCACGTGTCTGT,0.02 kcal/mol
12,ACGTACACGTGTGGGC,0.16 kcal/mol
13,AGGGTCACGTGACTGG,0.36 kcal/mol
14,TCAGACACGTGAGTGG,0.21 kcal/mol
15,ATTATCACGTGGGTTA,0.08 kcal/mol
16,AATATCACGTGTGGTG,0.16 kcal/mol
17,ATTATCACGTGGATCT,0.3 kcal/mol
18,TTGGGCACGTGTTTGG,-0.01 kcal/mol
19,TTTGGCACGTGCTATA,-0.28 kcal/mol
20,TTTTTCACGTGGAAAG,0.36 kcal/mol
21,GTAGTCACGTGTTGCA,0.21 kcal/mol
22,TGGAACACGTGGATTA,0.1 kcal/mol
23,GAGGGCACGTGCAATG,0.02 kcal/mol

row,Sequence,relative binding free energy
1,AAGTGCACGTGTTTAG,0.01 kcal/mol
2,AATAGCACGTGTAAGT,0.01 kcal/mol
3,GTCGGCACGTGCAAGG,0.13 kcal/mol
4,GTGAGCACGTGCCGGT,-0.07 kcal/mol
5,AGGTTCACGTGCCGGG,0.26 kcal/mol
6,GGTATCACGTGTTTAG,0.27 kcal/mol
7,TTTTTCACGTGTTGAC,0.35 kcal/mol
8,GTGAGCACGTGTCAGT,-0.03 kcal/mol
9,CTCGGCACGTGGGGGG,-0.28 kcal/mol
10,GTATACACGTGAGCTT,0.35 kcal/mol
11,TATGTCACGTGGATAG,0.06 kcal/mol
12,TTGAACACGTGTGCGT,0.01 kcal/mol
13,TGCGCCACGTGGGAGG,-0.25 kcal/mol
14,GTTAGCACGTGGATGT,-0.06 kcal/mol
15,GTGTGCACGTGATGCA,0.03 kcal/mol
16,TAGTACACGTGCGGGG,0.04 kcal/mol
17,GGGCACACGTGTTGCG,0.13 kcal/mol
18,AATATCACGTGGGGTG,0 kcal/mol
19,GGCGTCACGTGTAGTT,0.05 kcal/mol
20,ATATTCACGTGAGTTT,0.32 kcal/mol
21,AACGTCACGTGAGTTT,0.28 kcal/mol
22,TATTCCACGTGGGTGT,-0.1 kcal/mol
23,TTCGGCACGTGTAGCG,0.05 kcal/mol
